From PubChem BioAssay AID686978 (National Center for Advancing Translational Sciences (NCATS), 2013)
The campaign covered roughly 420,000 compounds. About 64,000 (15%) were called active. Inconclusive results, whose numbers are uncertain, are shown with a selection of clear calls. Calls follow the shape of the dose curve; as a rule, active = well fitted inhibition curve with a large enough effect; inconclusive = small, poorly fitted or top-dose-only effect; inactive = flat fitted curve, though single readings scatter. No potency is given beside an inconclusive call; the fits are too rough.

Assay: qHTS for Inhibitors of human tyrosyl-DNA phosphodiesterase 1 (TDP1): qHTS in cells in absence of CPT; also: nearly all actives have a fitted effect of over 55% in size
Conditions: DT40 Tdp1-/- hTDP1 cells, no CPT, ATP luminescence, 48 h; activity change, negative = growth inhibition: at 46.2 µM (top of the series) unless noted
Summary of the method: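 No-CPT arm: Tdp1-/-;hTDP1 DT40 cells (400/well) plus compounds, incubated ≥48 hr at 37 °C. Readout CellTiter-Glo luminescence.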
% is scaled to controls: 0 for no effect and ±100 for the full control effect; potency is read from the fitted curve at half-maximal effect; tags tell the direction and shape of the fitted curve.

Structure (SMILES) | activity change, negative = growth inhibition | Potency
Cc1cccc(CSc2nnc(CCNC(=O)OC(C)(C)C)o2)c1 | inconclusive: -30.9% [inhibitor] | 
O=C1N[C@@H](Cc2c[nH]c3ccccc23)C(=O)N[C@H]1Cc1c[nH]c2ccccc12 | inactive: -16.6% [at 9.04 µM] | 
CCCCC1CCC(C(=O)N2CC(=O)Nc3ccc(Br)cc3C2c2ccc(F)cc2)CC1 (configuration not stated) |  | active: 13 µM
Cc1ccnc(NC(=O)Nc2ccc3c(c2)N(C)C(=O)CS3)c1 |  | inconclusive [inhibitor, single point]
Cn1c(=O)c2c(nc(Sc3ncccn3)n2Cc2ccccc2Cl)n(C)c1=O |  | inconclusive [inhibitor, single point]
COc1ccc(Br)c(C(=O)N2CCN(S(=O)(=O)/C=C/c3ccccc3)CC2)c1 | inactive: -20.7% | 
Cc1c(N(C)S(=O)(=O)c2cccc(C(=O)NCc3cccnc3)c2)c(=O)n(-c2ccccc2)n1C | inactive: -14.9% | 
Cc1cccc2cc(CN(C(=O)c3cccc([N+](=O)[O-])c3)C(C)C)c(=O)[nH]c12 |  | inconclusive [inhibitor, single point]
Cc1noc(C)c1S(=O)(=O)N1CCCC(C(=O)NCCc2ccc(Cl)cc2)C1 (configuration not stated) |  | inconclusive [inhibitor, partial curve, poor fit]
COC(=O)COc1ccc(-c2nnc(Nc3ccc(O)cc3)c3ccccc23)cc1 |  | inconclusive [inhibitor, single point]
CN(C)c1ccc(-c2nnn(CC(=O)Nc3ccccc3N3CCOCC3)n2)cc1 |  | inconclusive [inhibitor, single point]
CC(=O)Oc1ccc2c(C)c(CC(=O)N3CCN(C(=O)C4COc5ccccc5O4)CC3)c(=O)oc2c1C (configuration not stated) | inactive: -28.9% | 
COc1ccc(Oc2cc(C)c3ccccc3n2)cc1 | inactive: -7.08% | 
O=C(Nc1c(C(=O)Nc2cccc3ccccc23)cnn1-c1ccccc1)c1ccco1 |  | inconclusive [inhibitor, single point]
COc1ccc(CN2C(=O)c3ccccc3C2C(=O)NC2CCCC(C)C2C)c(OC)c1 (configuration not stated) |  | inconclusive [inhibitor, single point]
S=C(Nc1nc2c(s1)CCCC2)NC1CC1 |  | inconclusive [inhibitor, single point]
COc1ccc(C(=O)ON=C2c3ccccc3-c3ccccc32)cc1OC |  | inconclusive [inhibitor, partial curve]
Cc1cccc2c1-c1sc(C(=O)Nc3ccc(F)cc3F)cc1CO2 |  | inconclusive [inhibitor, partial curve]
CCC1(C)Cc2c(sc3c2c(=O)n(C)c2nnc(SCC(=O)c4ccccc4)n32)CO1 (configuration not stated) |  | inconclusive [inhibitor, single point]
O=C(Nc1cccc(C(F)(F)F)c1)C1CCN(S(=O)(=O)c2cccnc2)CC1 |  | active: 20.6 µM
COc1ccc(C(=O)CN2C(=O)NC(C)(c3ccc(C)cc3)C2=O)cc1OC (configuration not stated) | inactive: -4.31% | 
CCOC(=O)NC(C(Cl)(Cl)Cl)S(=O)(=O)c1ccccc1 (configuration not stated) |  | inconclusive [inhibitor, partial curve]
Cc1ccc(/C=N/Nc2ccc3ccccc3n2)o1 |  | active: 4.11 µM
O=C(NCCCN1CCOCC1)NC1CCCCC1 |  | inconclusive [inhibitor, partial curve, poor fit]

Structure (SMILES) | activity change, negative = growth inhibition | Potency
OCCCn1c(C2CCCN2c2nc(-c3ccc(F)cc3)cs2)nc2cc(C(F)(F)F)ccc21 (configuration not stated) |  | inconclusive [inhibitor, partial curve, poor fit]
COc1cccc(CNC(=O)c2cc(S(=O)(=O)N3CCOCC3)cn2C)c1 | inactive: 1.34% | 
Clc1ccc2nc(CN3CCCc4ccccc43)cn2c1 |  | active: 18.4 µM
Cc1ccc(CNC(=O)C(=O)Nc2c3c(nn2-c2ccc(F)cc2)CSC3)cc1 |  | active: 5.17 µM
CSc1ccc(CNC(=O)C(C)n2nc(C)c3c(C)n(-c4ccccc4)nc3c2=O)cc1 (configuration not stated) | inactive: -10.2% | 
Cc1ncc2c(c1CNC(=O)c1ccc3c(c1)OCO3)CCN(C(=O)c1ccc3ccccc3c1)C2 | inactive: -18.9% | 
CCC(=O)OCc1cc(=O)n2nc(C3CC3)sc2n1 | inactive: -23% | 
Cc1cnc(C(=O)Nc2cccc(-c3nnc4n3CCCCC4)c2)cn1 | inactive: 0.268% | 
O=C(CN1C(=O)NC(Cc2c[nH]c3ccccc23)C1=O)Nc1cccc(S(=O)(=O)N2CCCC2)c1 (configuration not stated) |  | inconclusive [inhibitor, single point]
O=c1c2sc3ccccc3c2n(Cc2cccc(F)c2)c(=O)n1CCc1ccccc1 |  | inconclusive [inhibitor, single point]
CC(=O)Nc1nc(-c2ccccc2)c(-c2ccccc2)s1 |  | inconclusive [inhibitor, single point]
Cc1ccc(Cl)cc1N1CCN(C(=O)C(=O)N2CCCCC2)CC1 |  | inconclusive [inhibitor, single point]
O=C(Cn1c(=O)oc2ccccc21)N1CCCCC1 | inactive: -10% | 
Nc1c(C(=O)NCc2ccccc2)c2nc3ccccc3nc2n1CCCN1CCOCC1 | inactive: -80.1% | 
CCc1ccc(C2C(C#N)=C(N)N(N3CCOCC3)C3=C2C(=O)CC(C)(C)C3)s1 (configuration not stated) |  | inconclusive [inhibitor, partial curve]
CCC1(c2ccccc2)NC(=O)N(CC(=O)N(C)CC(=O)Nc2ccc(F)c(F)c2F)C1=O (configuration not stated) | inactive: -25.3% | 
COCOCCn1cc(CN2CCS(=O)(=O)N(Cc3ccc(-c4ccc(F)nc4)cc3)C(C)C2=O)nn1 (configuration not stated) | inactive: -19.3% | 
CC(=NNC(=S)N1CCCCC1)c1ccccn1 |  | active: 0.0082 µM
Cc1cc(C)c2c(N)c(C(=O)N3CCc4ccccc4C3)sc2n1 |  | active: 29.1 µM
Cc1ccc(C2C3=C(CC(C)(C)CC3=O)N=C3c4ccccc4C(=O)C32)cc1 (configuration not stated) |  | active: 18.4 µM
O=C(N/N=C/c1cn(-c2ccccc2)nc1-c1cccnc1)c1cccnc1 | inactive: -21.6% | 
C=CCc1cccc(/C=N/n2cnnc2)c1O | inconclusive: -31.8% [inhibitor] | 
NCc1cn(Cc2ccccc2)nc1-c1ccccc1 |  | inconclusive [inhibitor, single point]
Cc1cc(C)cc(NC(=S)Nc2ccc3cn[nH]c3c2)c1 |  | inconclusive [inhibitor, full curve, poor fit]

Structure (SMILES) | activity change, negative = growth inhibition | Potency
CCC1NC(=O)c2cc3ccccc3cc2-n2c1nc1cc(OC)c(OC)cc1c2=O (configuration not stated) |  | inconclusive [inhibitor, partial curve]
CCN(CC)CCNC(=O)c1ccc(NC(=O)c2cn(-c3ccc(F)cc3)nc2-c2cccc(OC)c2)cc1 |  | inconclusive [inhibitor, single point]
COC(=O)c1ccccc1NC(=O)[C@H]1O[C@@H]2OC(C)(C)O[C@@H]2[C@H]2OC(C)(C)O[C@H]21 | inactive: -27.5% | 
Cc1ccc(S(=O)(=O)N2CCN(C(=O)c3ccc(N4CCC(C)CC4)c([N+](=O)[O-])c3)CC2)cc1 |  | inconclusive [inhibitor, single point]
Cc1cccc(N(C)S(=O)(=O)c2c(C)noc2C)c1 | inconclusive: -30% [inhibitor] | 
CC1(C)NC(=O)NC2(C)NC(=O)NC(C)(C)C12 (configuration not stated) | inactive: -17.7% | 
O=[N+]([O-])c1ccc(O)c(Nc2c([N+](=O)[O-])ccc3nonc23)c1 |  | inconclusive [inhibitor, single point]
c1coc(-c2cnc3ccccc3n2)c1 | inactive: -1.59% | 
CC(=O)Nc1ccc(NC(=O)CCCc2c[nH]c3ccccc23)cc1 |  | inconclusive [inhibitor, single point]
CCCn1nnnc1NCc1ccccc1OCc1ccc(F)cc1 |  | inconclusive [inhibitor, single point]
CC(=O)Nc1cccc(-c2nc(-c3ccccc3)no2)c1 |  | inconclusive [inhibitor, single point]
CCOC(=O)c1ccc(N2C(=O)c3n[nH]c(-c4ccco4)c3C2c2ccc(C(=O)OC)cc2)cc1 (configuration not stated) |  | active: 14.6 µM
N#CC1=C2SCN(Cc3ccccc3)CN2C(=O)CC1c1ccc2c(c1)OCO2 (configuration not stated) |  | inconclusive [inhibitor, single point]
Cc1ccc(CCNC(=O)C2CCCN(S(=O)(=O)c3c(C)nn(C)c3C)C2)cc1 (configuration not stated) |  | inconclusive [inhibitor, single point]
O=C(NNc1ccccc1Cl)C(O)(c1cccc(C(F)(F)F)c1)c1cccc(C(F)(F)F)c1 |  | active: 16.4 µM
O=C(c1ccc2c(c1)N(Cc1ccc(Cl)cc1)C(=O)c1ccccc1S2(=O)=O)N1CCCC1 |  | active: 25.9 µM
Cc1ccc(O)c(C(=O)/C=C/c2ccc3c(c2)OCCCO3)c1 |  | inconclusive [inhibitor, single point]
CCCCCCC(=O)Nc1ccc2nc3c(=O)n(C)c(=O)n(C)c3nc2c1C | inactive: 2.71% | 
CN1CCN(NC(=O)c2c(-c3ccccc3)sc3ccccc23)CC1 | inactive: -7.53% | 
COCCCNC(=O)c1sc2ncn(CC(=O)Nc3ccc(C)c(Cl)c3)c(=O)c2c1C |  | active: 20.6 µM
O=C(NCCCN1CCOCC1)c1ccc(CSCc2cccc(Cl)c2)o1 |  | inconclusive [inhibitor, single point]
O=C1NC2(CCCCC2)OC12CCCCC2 | inactive: -3.55% | 
CC(=O)c1cccc(-c2ccnc3c2CC(C(=O)NCc2ccncc2)O3)c1 (configuration not stated) |  | inconclusive [inhibitor, single point]
Cn1c(=O)oc2cc(S(=O)(=O)NCCC(=O)NCc3ccccc3Cl)ccc21 | inactive: 4.72% | 
